The supplement of paper PMC8728848
The list shows a part of the results.

Assays:
Assay in all cases: glycan array binding signal (z-score within array); higher = stronger binding
Conditions in all cases: glycan notation: IUPAC condensed, linker removed
[1] = molecular target: Gal(b1-4)GlcNAc(b1-3)Gal(b1-3)GlcNAc
Outline: (§1)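 Columns mapping to the same glycan were averaged after glycan names were converted to IUPAC-condensed notation. The data come from 3228 arrays in the Consortium for Functional Glycomics database, limited to those with an available protein sequence. Binding is reported as a within-array Z-score averaged across arrays of one protein sequence and across linkers.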

[2] = molecular target: Gal(b1-4)GlcNAc(b1-3)Gal(b1-4)Glc
Outline: as §1

[3] = molecular target: Gal(b1-4)GlcNAc(b1-3)Gal(b1-4)GlcNAc
Outline: as §1

[4] = molecular target: Gal(b1-4)GlcNAc(b1-3)Gal(b1-4)GlcNAc(b1-2)Man(a1-3)[Gal(b1-4)GlcNAc(b1-3)Gal(b1-4)GlcNAc(b1-2)Man(a1-6)]Man(b1-4)GlcNAc(b1-4)GlcNAc
Outline: as §1

[5] = molecular target: Gal(b1-4)GlcNAc(b1-3)Gal(b1-4)GlcNAc(b1-2)Man(a1-3)[Gal(b1-4)GlcNAc(b1-3)Gal(b1-4)GlcNAc(b1-2)Man(a1-6)]Man(b1-4)GlcNAc(b1-4)[Fuc(a1-6)]GlcNAc
Outline: as §1

[6] = molecular target: Gal(b1-4)GlcNAc(b1-3)Gal(b1-4)GlcNAc(b1-2)[Gal(b1-4)GlcNAc(b1-3)Gal(b1-4)GlcNAc(b1-6)]Man(a1-6)[Gal(b1-4)GlcNAc(b1-3)Gal(b1-4)GlcNAc(b1-2)Man(a1-3)]Man(b1-4)GlcNAc(b1-4)GlcNAc
Outline: as §1

[7] = molecular target: Gal(b1-4)GlcNAc(b1-3)Gal(b1-4)GlcNAc(b1-2)[Gal(b1-4)GlcNAc(b1-3)Gal(b1-4)GlcNAc(b1-6)]Man(a1-6)[Gal(b1-4)GlcNAc(b1-3)Gal(b1-4)GlcNAc(b1-2)Man(a1-3)]Man(b1-4)GlcNAc(b1-4)[Fuc(a1-6)]GlcNAc
Outline: as §1

[8] = molecular target: Gal(b1-4)GlcNAc(b1-3)Gal(b1-4)GlcNAc(b1-3)Gal(b1-4)GlcNAc
Outline: as §1

[9] = molecular target: Gal(b1-4)GlcNAc(b1-3)Gal(b1-4)GlcNAc(b1-3)Gal(b1-4)GlcNAc(b1-2)Man(a1-3)[Gal(b1-4)GlcNAc(b1-3)Gal(b1-4)GlcNAc(b1-3)Gal(b1-4)GlcNAc(b1-2)Man(a1-6)]Man(b1-4)GlcNAc(b1-4)GlcNAc
Outline: as §1

[10] = molecular target: Gal(b1-4)GlcNAc(b1-3)Gal(b1-4)GlcNAc(b1-3)Gal(b1-4)GlcNAc(b1-2)Man(a1-3)[Gal(b1-4)GlcNAc(b1-3)Gal(b1-4)GlcNAc(b1-3)Gal(b1-4)GlcNAc(b1-2)Man(a1-6)]Man(b1-4)GlcNAc(b1-4)[Fuc(a1-6)]GlcNAc
Outline: as §1

[11] = molecular target: Gal(b1-4)GlcNAc(b1-3)Gal(b1-4)GlcNAc(b1-3)Gal(b1-4)GlcNAc(b1-2)[Gal(b1-4)GlcNAc(b1-3)Gal(b1-4)GlcNAc(b1-3)Gal(b1-4)GlcNAc(b1-6)]Man(a1-6)[Gal(b1-4)GlcNAc(b1-3)Gal(b1-4)GlcNAc(b1-3)Gal(b1-4)GlcNAc(b1-2)Man(a1-3)]Man(b1-4)GlcNAc(b1-4)[Fuc(a1-6)]GlcNAc
Outline: as §1

[12] = molecular target: Gal(b1-4)GlcNAc(b1-3)Gal(b1-4)GlcNAc(b1-3)Gal(b1-4)GlcNAc(b1-3)Gal(b1-4)GlcNAc(b1-2)Man(a1-3)[Gal(b1-4)GlcNAc(b1-3)Gal(b1-4)GlcNAc(b1-3)Gal(b1-4)GlcNAc(b1-3)Gal(b1-4)GlcNAc(b1-2)Man(a1-6)]Man(b1-4)GlcNAc(b1-4)GlcNAc
Outline: as §1

[13] = molecular target: Gal(b1-4)GlcNAc(b1-3)Gal(b1-4)GlcNAc(b1-3)Gal(b1-4)GlcNAc(b1-3)Gal(b1-4)GlcNAc(b1-2)Man(a1-3)[Gal(b1-4)GlcNAc(b1-3)Gal(b1-4)GlcNAc(b1-3)Gal(b1-4)GlcNAc(b1-3)Gal(b1-4)GlcNAc(b1-2)Man(a1-6)]Man(b1-4)GlcNAc(b1-4)[Fuc(a1-6)]GlcNAc
Outline: as §1

[14] = molecular target: Gal(b1-4)GlcNAc(b1-3)Gal(b1-4)GlcNAc(b1-3)Gal(b1-4)GlcNAc(b1-3)Gal(b1-4)GlcNAc(b1-2)[Gal(b1-4)GlcNAc(b1-3)Gal(b1-4)GlcNAc(b1-3)Gal(b1-4)GlcNAc(b1-3)Gal(b1-4)GlcNAc(b1-6)]Man(a1-6)[Gal(b1-4)GlcNAc(b1-3)Gal(b1-4)GlcNAc(b1-3)Gal(b1-4)GlcNAc(b1-3)Gal(b1-4)GlcNAc(b1-2)Man(a1-3)]Man(b1-4)GlcNAc(b1-4)[Fuc(a1-6)]GlcNAc
Outline: as §1

[15] = molecular target: Gal(b1-4)GlcNAc(b1-3)Gal(b1-4)GlcNAc(b1-3)Gal(b1-4)GlcNAc(b1-3)Gal(b1-4)GlcNAc(b1-3)Gal(b1-4)GlcNAc(b1-2)Man(a1-3)[Gal(b1-4)GlcNAc(b1-3)Gal(b1-4)GlcNAc(b1-3)Gal(b1-4)GlcNAc(b1-3)Gal(b1-4)GlcNAc(b1-3)Gal(b1-4)GlcNAc(b1-2)Man(a1-6)]Man(b1-4)GlcNAc(b1-4)GlcNAc
Outline: as §1

[16] = molecular target: Gal(b1-4)GlcNAc(b1-3)Gal(b1-4)GlcNAc(b1-3)Gal(b1-4)GlcNAc(b1-3)Gal(b1-4)GlcNAc(b1-3)Gal(b1-4)GlcNAc(b1-2)Man(a1-3)[Gal(b1-4)GlcNAc(b1-3)Gal(b1-4)GlcNAc(b1-3)Gal(b1-4)GlcNAc(b1-3)Gal(b1-4)GlcNAc(b1-3)Gal(b1-4)GlcNAc(b1-2)Man(a1-6)]Man(b1-4)GlcNAc(b1-4)[Fuc(a1-6)]GlcNAc
Outline: as §1

[17] = molecular target: Gal(b1-4)GlcNAc(b1-3)Gal(b1-4)GlcNAc(b1-3)Gal(b1-4)GlcNAc(b1-3)Gal(b1-4)GlcNAc(b1-3)Gal(b1-4)GlcNAc(b1-2)[Gal(b1-4)GlcNAc(b1-3)Gal(b1-4)GlcNAc(b1-3)Gal(b1-4)GlcNAc(b1-3)Gal(b1-4)GlcNAc(b1-3)Gal(b1-4)GlcNAc(b1-6)]Man(a1-6)[Gal(b1-4)GlcNAc(b1-3)Gal(b1-4)GlcNAc(b1-3)Gal(b1-4)GlcNAc(b1-3)Gal(b1-4)GlcNAc(b1-3)Gal(b1-4)GlcNAc(b1-2)Man(a1-3)]Man(b1-4)GlcNAc(b1-4)[Fuc(a1-6)]GlcNAc
Outline: as §1

[18] = molecular target: Gal(b1-4)GlcNAc(b1-3)Gal(b1-4)GlcNAc(b1-3)Gal(b1-4)GlcNAc(b1-3)Gal(b1-4)GlcNAc(b1-3)Gal(b1-4)GlcNAc(b1-3)Gal(b1-4)GlcNAc(b1-2)Man(a1-3)[Gal(b1-4)GlcNAc(b1-3)Gal(b1-4)GlcNAc(b1-3)Gal(b1-4)GlcNAc(b1-3)Gal(b1-4)GlcNAc(b1-3)Gal(b1-4)GlcNAc(b1-3)Gal(b1-4)GlcNAc(b1-2)Man(a1-6)]Man(b1-4)GlcNAc(b1-4)GlcNAc
Outline: as §1

[19] = molecular target: Gal(b1-4)GlcNAc(b1-3)Gal(b1-4)GlcNAc(b1-3)GalNAc
Outline: as §1

[20] = molecular target: Gal(b1-4)GlcNAc(b1-3)Gal(b1-4)GlcNAc(b1-3)[Gal(b1-4)GlcNAc(b1-3)Gal(b1-4)GlcNAc(b1-6)]GalNAc
Outline: as §1

[21] = molecular target: Gal(b1-4)GlcNAc(b1-3)Gal(b1-4)GlcNAc(b1-6)[Gal(b1-3)]GalNAc
Outline: as §1

[22] = molecular target: Gal(b1-4)GlcNAc(b1-3)Gal(b1-4)[Fuc(a1-3)GlcNAc(b1-6)]Gal(b1-4)Glc
Outline: as §1

[23] = molecular target: Gal(b1-4)GlcNAc(b1-3)Gal(b1-4)[Fuc(a1-3)]GlcNAc(b1-3)Gal(b1-4)[Fuc(a1-3)]GlcNAc
Outline: as §1

B1: PA-IL (Pseudomonas aeruginosa), Q05097 (protein)
chain: MAWKGEVLANNEAGQVTSIIYNPGDVITIVAAGWASYGPTQKWGPQGDREHPDQGLICHDAFCGALVMKIGNSGTIPVNTGLFRWVAPNNVQGAITLIYNDVPGTYGNNSGSFSVNIGKDQS
[1]
  glycan array binding signal (z-score): -0.216
[2]
  glycan array binding signal (z-score): -0.213
[3]
  glycan array binding signal (z-score): -0.169
[4]
  glycan array binding signal (z-score): 0.074
[5]
  glycan array binding signal (z-score): -0.091
[6]
  glycan array binding signal (z-score): 0.099
[7]
  glycan array binding signal (z-score): 0.45
[8]
  glycan array binding signal (z-score): -0.236
[9]
  glycan array binding signal (z-score): 0.09
[10]
  glycan array binding signal (z-score): -0.1
[11]
  glycan array binding signal (z-score): 0.032
[12]
  glycan array binding signal (z-score): -0.156
[13]
  glycan array binding signal (z-score): -0.138
[14]
  glycan array binding signal (z-score): -0.081
[15]
  glycan array binding signal (z-score): -0.195
[16]
  glycan array binding signal (z-score): -0.167
[17]
  glycan array binding signal (z-score): -0.097
[18]
  glycan array binding signal (z-score): -0.17
[19]
  glycan array binding signal (z-score): -0.026
[20]
  glycan array binding signal (z-score): 0.788
[21]
  glycan array binding signal (z-score): -0.04
[22]
  glycan array binding signal (z-score): -0.224
[23]
  glycan array binding signal (z-score): -0.223
